From PubChem BioAssay AID624296 (National Center for Advancing Translational Sciences (NCATS), 2012)
Out of some 350,000 compounds screened, about 9,900 (2.8%) were called active. Inconclusive means that the source gave no clear call. Such entries were picked first, then a sample of the others. The call rests on the fitted dose curve; in most records, active means well fitted activation curve with a large enough effect; inconclusive means small, poorly fitted or top-dose-only effect; inactive means no such curve, though single readings can be large or run the other way. No potency is given beside an inconclusive call; the fits are too rough.

Assay: A quantitative high throughput screen for small molecules that induce DNA re-replication in MCF 10a normal breast cells. Further: nearly all actives have a fitted effect of over 50% in size.
Settings: MCF 10A DNA re-replication, Hoechst nuclear intensity, 48 h; series mostly up to 46.1 µM
Potency means the concentration at half of the fitted maximal effect; tags describe the fitted curve by direction and shape.

| Structure (SMILES) | Potency |
| --- | --- |
| O=C(CSc1nc2ccccc2c(=O)n1Cc1ccccc1)Nc1ccc(Br)cc1C(=O)O | active: 23.1 µM |
| CCc1nnc(NS(=O)(=O)c2ccc(N/C=C\C(=O)c3cccc4ccccc34)cc2)s1 | inconclusive [activator, single point] |
| CCNc1ccc(C(=O)NN=C2CCCC2)cc1[N+](=O)[O-] | inactive |
| CC(=O)Nc1ccc(S(=O)(=O)NCC(=O)OCC(=O)NCc2ccco2)cc1 | inactive |
| COc1cccc(/C=N/NC(=O)CSc2ccccc2C)c1O | inconclusive [activator, partial curve, poor fit] |
| CCc1nc(SCC(=O)Nc2ccc(N(C)C)cc2)c2ccccc2n1 | inconclusive [activator, single point] |
| Cc1ccc(NC(=O)CC2SC(=O)NC2=O)cc1 (stereo not given) | inactive |
| CCOC(=O)C1=C(c2ccccc2)NC(=O)NC1c1ccc(O)c(OCC)c1 (stereo not given) | inactive |
| C#CCOCCOCCOCCNc1nc(N2CCN(C(=O)CCCCCCCCCCNC(=O)[C@@H](CCSC)n3cc(CCO)nn3)CC2)nc(N2CCN(C(=O)CCCCCCCCCCNC(=O)[C@H]([C@@H](C)CC)n3cc(CCCCCN)nn3)CC2)n1 | inconclusive [activator, single point] |
| COc1ccc(N(C(=O)c2snc(C(N)=O)c2N)C(C(=O)NCc2ccccc2)c2ccc(F)cc2)c(OC)c1 (stereo not given) | inconclusive [activator, single point] |
| O=C(COc1ccc2c(c1)CCC2)N1CCc2ccccc21 | active: 25.9 µM |
| Cc1cc(C)c(OCCCCN2CCC(C)CC2)c(Br)c1 | inconclusive [activator, partial curve] |
| Cc1cc(C(=O)Nn2c(-c3ccc(Br)cc3)nc3ccccc3c2=O)ccc1[N+](=O)[O-] | inconclusive [activator, single point] |
| CC(C)(C)NCC(O)COc1c(F)cc(Br)cc1F (stereo not given) | inactive |
| O=C(Nc1nnc(SCc2ccc(F)cc2)s1)c1ccc2c(c1)C(=O)N(c1ccccc1Cl)C2=O | inactive |
| COCCNC(=S)N/N=C(\C)c1ccccc1O | inactive |
| Cc1ccccc1CN(C)CC(=O)NC(C)CCc1ccccc1 (stereo not given) | inactive |
| CCC(C(=O)NC1CCCC1)N(Cc1ccc2c(c1)OCO2)C(=O)c1snc(C(N)=O)c1N (stereo not given) | inactive |
| CC(C)Cn1cnc2c(Sc3c([N+](=O)[O-])ncn3C)nc(N)nc21 | inconclusive [activator, single point] |
| Cc1cccc(C(=O)N[C@H](C(=O)OCC(=O)NC(=O)c2cccn2C)C(C)C)c1 | inactive |
| N#Cc1cccc(NC(=O)c2cncn2-c2ccccc2)c1 | inactive |
| CN(C(=O)CSc1nc(C2CC2)nc2ccccc12)c1nc(-c2ccccc2)cs1 | inconclusive [activator, partial curve, poor fit] |
| COc1ccc(C(=O)N(Cc2ccccc2)Cc2cc3cc4c(cc3[nH]c2=O)OCCO4)cc1 | inconclusive [activator, single point] |

| Structure (SMILES) | Potency |
| --- | --- |
| N#Cc1nc(Cc2cccc3ccccc23)oc1NCCCn1ccnc1 | inconclusive [activator, partial curve, poor fit] |
| Cc1ccc(NC(=S)NCc2ccco2)c(C)c1 | inconclusive [activator, full curve, poor fit] |
| CC(C)(C)OC(=O)N1CCC[C@H]1c1nnc(SC/C=C/c2ccccc2)o1 | inconclusive [activator, partial curve, poor fit] |
| O=C(c1cccc(-n2cccc2)c1)N1CCN(S(=O)(=O)c2ccccc2)CC1 | inconclusive [activator, partial curve] |
| CCOC(=O)c1sc(NC(=O)c2ccccc2F)c(C(N)=O)c1C | inconclusive [activator, partial curve, poor fit] |
| O=C(O)c1ccc(S(=O)(=O)/N=C2\C=C(Nc3ccccc3F)C(=O)c3ccccc32)cc1 | active: 1.46 µM |
| O=c1oc2ccccc2c(Nc2cccc3cccnc23)c1[N+](=O)[O-] | inactive |
| Cc1ccc(-n2[nH]c(C)c(C=Nc3ccc4[nH]c(=O)[nH]c4c3)c2=O)cc1C | inconclusive [activator, single point] |
| CC(Oc1ccc2ccc(=O)oc2c1)C(=O)NC1CC(C)(C)NC(C)(C)C1 (stereo not given) | inactive |
| O=C(NC1CCCc2ccccc21)C1CCN(c2c3c(nc4ncnn24)CCC3)CC1 (stereo not given) | inactive |
| N#CC(C#N)=C1C=CC=CN1/C(=C\c1ccco1)C(=O)c1ccc(-c2ccccc2)cc1 | active: 3.26 µM |
| CCOC(=O)c1c(CC(C)C)csc1/N=C/C1C(=O)CC(C)(C)CC1=O | inactive |
| Fc1cccc(/C=N/Nc2ccc(Cl)nn2)c1 | inactive |
| O=C(Cc1ccccc1)N1CCc2ccccc21 | inactive |
| OCCNc1nc(Nc2ccc(Cl)c(Cl)c2)nc2ccccc12 | inconclusive [activator, single point] |
| COc1ccc(-c2csc(NC(=O)C3CCN(c4ncnc5sc(C)c(C)c45)CC3)n2)cc1OC | inconclusive [activator, single point] |
| Cc1nn(C(=O)c2cccc([N+](=O)[O-])c2)c(C)c1Sc1ccccc1 | inconclusive [activator, single point] |
| Cc1occc1C(=O)N/N=C/C1=C(N2CCOCC2)C(=C\c2ccc(Cl)cc2)/CC1 | active: 18.4 µM |
| CN(C)CC/C=C1\c2ccc(F)cc2Sc2cc(F)c(Cl)cc21 | inconclusive [activator, single point] |
| Cc1cc(C)nc(SCc2nnc(SCC#N)n2-c2cccc(Cl)c2)n1 | inactive |
| Cc1ccc(Cn2ncc3c(N4CCN(C5CCCC5)CC4)ncnc32)cc1 | inconclusive [activator, partial curve, poor fit] |
| S=C(NCc1ccc(Cl)cc1)Nc1ccc(Cl)cc1Cl | inconclusive [activator, partial curve, poor fit] |
